The values below come from the supplement of paper PMC10369915.

Some targets named below: SHP2 C-SH2 domain E139D; SHP2 N-SH2 domain L43F; SHP2 N-SH2 domain T42A; SHP2 N-SH2 domain T52S.
What all share (experiment): enrichment score (SH2-bound / input frequency) (ratio); bacterial display of known human phosphotyrosine sites (pTyr-Var adds point mutants) read by sequencing; higher = stronger binding; tyrosines were phosphorylated by kinases first
What all share (conditions): peptide library: pTyr-Var

In assay [1] the target is SHP2 C-SH2 domain wild-type.
Assay [2] addresses SHP2 N-SH2 domain wild-type.

This is one part of the list. Cut-off read from the data, not from the text of the source: active = 3.2 or more and inactive = the rest. Most of these values are background signal.
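Note: displayed peptides selected on beads carrying the immobilized SH2 domain, with library peptides lacking any tyrosine serving as negative controls.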

In the case of FGGLRCGFGVL [KRTAP20-2_Y13_Y13C_YF], the enrichment score with SHP2 C-SH2 domain E139D is inactive: 0.85; in assay [1], inactive: 1.2; with SHP2 N-SH2 domain L43F it was inactive: 0.835; with SHP2 N-SH2 domain T42A it was inactive: 0.728; with SHP2 N-SH2 domain T52S, inactive: 0.986; in assay [2] it was inactive: 1.31.

DIRAQYDELAR [KRT18_Y256]: the enrichment score was inactive: 0.568 with SHP2 C-SH2 domain E139D; inactive: 0.65 in assay [1]; inactive: 0.667 in the assay with SHP2 N-SH2 domain L43F; inactive: 0.583 in the assay with SHP2 N-SH2 domain T42A; inactive: 0.591 with SHP2 N-SH2 domain T52S; inactive: 0.596 in assay [2].

For the molecule EVRTQYEEIAQ [KRT76_Y361_A359T], the enrichment score with SHP2 C-SH2 domain E139D was inactive: 0.809; in assay [1] it was inactive: 0.866; with SHP2 N-SH2 domain L43F, inactive: 0.731; with SHP2 N-SH2 domain T42A it was inactive: 1.7; with SHP2 N-SH2 domain T52S, inactive: 0.795; in assay [2], inactive: 0.869.

In the case of YGGLRCGYGVL [KRTAP20-2_Y13_Y13C], the enrichment score in the assay with SHP2 C-SH2 domain E139D was inactive: 0.858; in assay [1], inactive: 1.11; with SHP2 N-SH2 domain L43F, inactive: 0.95; in the assay with SHP2 N-SH2 domain T42A, inactive: 0.864; with SHP2 N-SH2 domain T52S, inactive: 0.923; in assay [2], inactive: 0.946.

In the case of KIKGRYEKCEP [KRT26_Y119_W118R], the enrichment score was active: 4.48 in the assay with SHP2 C-SH2 domain E139D; active: 3.96 in assay [1]; active: 3.68 with SHP2 N-SH2 domain L43F; active: 3.34 with SHP2 N-SH2 domain T42A; active: 3.46 with SHP2 N-SH2 domain T52S; inactive: 3.11 in assay [2].

As for DRLASYLDKMR [KRT17_Y98_V102M], the enrichment score in the assay with SHP2 C-SH2 domain E139D was inactive: 1.12; in assay [1] it was inactive: 0.916; with SHP2 N-SH2 domain L43F it was inactive: 0.961; with SHP2 N-SH2 domain T42A, inactive: 0.971; with SHP2 N-SH2 domain T52S, inactive: 0.993; in assay [2], inactive: 1.12.

Take LEGEEYRMSGE [KRT3_Y511]: the enrichment score is inactive: 0.384 in the assay with SHP2 C-SH2 domain E139D; inactive: 0.535 in assay [1]; inactive: 0.493 with SHP2 N-SH2 domain L43F; inactive: 0.508 with SHP2 N-SH2 domain T42A; inactive: 0.415 with SHP2 N-SH2 domain T52S; inactive: 0.572 in assay [2].

Take RDWSLYFKIIE [KRT18_Y129_H128L]: the enrichment score with SHP2 C-SH2 domain E139D is inactive: 0.69; in assay [1], inactive: 0.98; in the assay with SHP2 N-SH2 domain L43F it was inactive: 0.718; with SHP2 N-SH2 domain T42A, inactive: 0.415; with SHP2 N-SH2 domain T52S it was inactive: 0.452; in assay [2], inactive: 1.01.

Turning to RMLRKYQELMS [KRT74_Y425_E424K], the enrichment score was inactive: 0.442 with SHP2 C-SH2 domain E139D; inactive: 0.332 in assay [1]; inactive: 0.233 with SHP2 N-SH2 domain L43F; inactive: 0.288 with SHP2 N-SH2 domain T42A; inactive: 0.363 with SHP2 N-SH2 domain T52S; inactive: 0.442 in assay [2].

With DIRAQYDELAQ [KRT18_Y256_R261Q], the enrichment score is inactive: 0.595 with SHP2 C-SH2 domain E139D; inactive: 0.681 in assay [1]; inactive: 0.648 with SHP2 N-SH2 domain L43F; inactive: 0.532 with SHP2 N-SH2 domain T42A; inactive: 0.573 in the assay with SHP2 N-SH2 domain T52S; inactive: 0.745 in assay [2].

In the case of EQLQSYQVEII [KRT33A_Y268_A270V], the enrichment score with SHP2 C-SH2 domain E139D was inactive: 0.91; in assay [1], inactive: 0.881; with SHP2 N-SH2 domain L43F, inactive: 0.848; with SHP2 N-SH2 domain T42A, inactive: 0.718; with SHP2 N-SH2 domain T52S, inactive: 0.689; in assay [2] it was inactive: 0.862.

SSSGAYGGGFG [KRT19_Y61_YF]: the enrichment score in the assay with SHP2 C-SH2 domain E139D is inactive: 0.505; in assay [1], inactive: 0.624; with SHP2 N-SH2 domain L43F, inactive: 0.549; with SHP2 N-SH2 domain T42A, inactive: 0.528; with SHP2 N-SH2 domain T52S it was inactive: 0.51; in assay [2], inactive: 0.707.

With FGGLRYGFGVL [KRTAP20-2_Y13_YF], the enrichment score is inactive: 1.72 with SHP2 C-SH2 domain E139D; inactive: 1.67 in assay [1]; inactive: 1.37 with SHP2 N-SH2 domain L43F; inactive: 1.43 with SHP2 N-SH2 domain T42A; inactive: 1.6 with SHP2 N-SH2 domain T52S; inactive: 1.64 in assay [2].

Turning to WFQTKYEELQI [KRT6B_Y360_YF], the enrichment score was inactive: 2.27 in the assay with SHP2 C-SH2 domain E139D; inactive: 1.9 in assay [1]; inactive: 3.2 with SHP2 N-SH2 domain L43F; active: 13.4 in the assay with SHP2 N-SH2 domain T42A; active: 4.03 with SHP2 N-SH2 domain T52S; inactive: 1.5 in assay [2].

Turning to KAESWYQTKFE [KRT75_Y342_E337K_YF], the enrichment score with SHP2 C-SH2 domain E139D is inactive: 0.841; in assay [1], inactive: 0.675; in the assay with SHP2 N-SH2 domain L43F, inactive: 0.703; in the assay with SHP2 N-SH2 domain T42A, inactive: 0.706; with SHP2 N-SH2 domain T52S, inactive: 0.815; in assay [2], inactive: 0.708.

Turning to LEGKEYRMSGE [KRT3_Y511_E509K], the enrichment score was inactive: 0.769 with SHP2 C-SH2 domain E139D; inactive: 0.532 in assay [1]; inactive: 0.71 with SHP2 N-SH2 domain L43F; inactive: 0.59 with SHP2 N-SH2 domain T42A; inactive: 0.674 with SHP2 N-SH2 domain T52S; inactive: 0.923 in assay [2].

SSSGGYGGGYG [KRT19_Y61_A60G]: the enrichment score with SHP2 C-SH2 domain E139D was inactive: 0.63; in assay [1], inactive: 0.606; with SHP2 N-SH2 domain L43F it was inactive: 0.634; with SHP2 N-SH2 domain T42A it was inactive: 0.661; in the assay with SHP2 N-SH2 domain T52S, inactive: 0.578; in assay [2] it was inactive: 0.666.

For the molecule AFGGGYGGVLT [KRT19_Y65_YF], the enrichment score with SHP2 C-SH2 domain E139D is inactive: 0.885; in assay [1], inactive: 0.678; in the assay with SHP2 N-SH2 domain L43F, inactive: 0.783; in the assay with SHP2 N-SH2 domain T42A, inactive: 0.787; with SHP2 N-SH2 domain T52S, inactive: 0.761; in assay [2], inactive: 0.807.

Consider GLGGGCGGASG [KRT8_Y54_Y54C], for which the enrichment score was inactive: 0.607 in the assay with SHP2 C-SH2 domain E139D; inactive: 0.618 in assay [1]; inactive: 0.42 in the assay with SHP2 N-SH2 domain L43F; inactive: 0.469 with SHP2 N-SH2 domain T42A; inactive: 0.542 with SHP2 N-SH2 domain T52S; inactive: 0.547 in assay [2].
